Reference: PubChem BioAssay (Tox21)
Several values for one entry are separate records, joined by “and”; a condition that tells them apart may be missing. Equal values may be shown once. The shares of active, inactive and inconclusive entries below differ from those in the screen. Potencies beside an inconclusive call are fits to weak or partial responses and may not hold up. Activity calls are given as the source filed them. Unless noted, the call rests on the fitted dose curve; in most records, active means well fitted cell-killing curve with a large enough effect in the repeat runs; inconclusive means weak or mixed curves, or effect the other way; inactive means no such curve, though single readings can be large or run the other way.

Assays:
[1] = biological target: Bile acid receptor (Homo sapiens) (UniProt Q96RI1); test: qHTS assay to identify small molecule agonists of the farnesoid-X-receptor (FXR) signaling pathway (AID 743220; active means well fitted activation curve with a large enough effect in the signal ratio in the repeat runs, not every such curve was filed as active; inconclusive means weak or mixed curves, or effect the other way; the % refers to the signal ratio; on activation: on the % scale 0 is the no-effect control and ±100 the full control effect); details: HEK293T FXR-UAS-bla, beta-lactamase FRET ratio, 16 h; activation: at 62.6 µM (top of the series) unless noted
Outline: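 Beta-lactamase reporter under UAS control in GeneBLAzer FXR HEK 293T cells (5000/well) measured with LiveBLAzer FRET substrate after 2 h at room temperature. Compound exposure lasted 16 h at 37C.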

[2] = biological target: Vitamin D3 receptor (Homo sapiens) (UniProt P11473); test: qHTS assay to identify small molecule agonists of the vitamin D receptor (VDR) signaling pathway (AID 743222; calls by dose curve); details: HEK293T VDR-UAS-bla, beta-lactamase FRET ratio, 16 h; activation: at 63.5 µM (top of the series) unless noted
Outline: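 In VDR-bla cells, compound-induced beta-lactamase expression is quantified by FRET substrate fluorescence. Treatment lasts 16 h at 37C; substrate develops 2 h at room temperature.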

[3] = biological target: Vitamin D3 receptor (Homo sapiens) (UniProt P11473); test: qHTS assay to identify small molecule antagonists of the vitamin D receptor (VDR) signaling pathway (AID 743223; active means well fitted inhibition curve with a large enough effect in the signal ratio in the repeat runs, not every such curve was filed as active; inconclusive means weak or mixed curves, or effect the other way; inactive means no such curve, though single readings can be large or run the other way; the % refers to the signal ratio; on activity change, negative = inhibition: on the % scale 0 is the no-effect control and ±100 the full control effect); details: VDR-UAS-bla HEK293T, beta-lactamase FRET ratio, 16 h; activity change, negative = inhibition: at 61 µM (top of the series) unless noted
Outline: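 Cells carrying a VDR-driven beta-lactamase reporter (VDR-bla) were co-treated with compound and 3 nM final 1alpha,25-dihydroxyvitamin D3 for 16 h at 37C; reporter activity was measured as FRET substrate fluorescence after 2 h at room temperature.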

[4] = qHTS assay to identify small molecule agonists of the NFkB signaling pathway (AID 1159509; active means well fitted curve in the direction sought with a large enough effect in the signal ratio in the repeat runs, not every such curve was filed as active; inconclusive means weak or mixed curves, or a change in a side signal; inactive means no such curve, though single readings can be large or run the other way; the % refers to the signal ratio; on activation: on the % scale 0 is the no-effect control and ±100 the full control effect); details: NFkB-bla ME-180 cells, beta-lactamase FRET ratio, 5 h; activation: at 61 µM (top of the series) unless noted
Outline: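 After overnight attachment, reporter cells received test compounds, DMSO or positive controls and were incubated 5 hr at 37 C. FRET substrate was then added for 1.5 hr at room temperature before dual-emission fluorescence reading.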

[5] = qHTS assay to identify small molecule agonists of the NFkB signaling pathway - cell viability counter screen (AID 1159515; calls by dose curve; further: nearly all actives have a fitted effect of over 55% in size); details: NFkB-bla ME-180 viability, CellTiter-Glo luminescence, 5 h; series mostly up to 61 µM
Outline: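 Using the same wells as the NFkB reporter read, ME-180 NFkB-bla cells given compounds for 5 hr were assessed for viability via CellTiter-Glo, with luminescence taken after a 30 min room-temperature incubation.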

[6] = qHTS assay to identify small molecule agonists of the endoplasmic reticulum stress response signaling pathway (AID 1159516; active means well fitted activation curve with a large enough effect in the signal ratio in the repeat runs, not every such curve was filed as active; inconclusive means weak or mixed curves, or effect the other way; the % refers to the signal ratio; on activation: on the % scale 0 is the no-effect control and ±100 the full control effect); details: ESRE-bla HeLa, ER stress beta-lactamase reporter, 5 h; activation: at 61 µM (top of the series) unless noted
Outline: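 An ESRE-bla HeLa cell assay: compounds were pin-transferred from DMSO onto overnight-plated cells and left 5 hr at 37 C. Substrate was then loaded for 2 hr at room temperature before reading fluorescence at 460 nm and 530 nm.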

[7] = qHTS assay to identify small molecule agonists of the vitamin D receptor (VDR) signaling pathway - cell viability counter screen (AID 743224); details: VDR-bla HEK293T viability, CellTiter-Glo luminescence, 16 h; series mostly up to 62.6 µM; further: nearly all actives have a fitted effect of over 50% in size
Outline: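 Plated VDR-bla cells (4 h, 37C) received compound, incubated 16 h, then LiveBLAzer substrate 2 h RT; CellTiter-Glo added afterwards, luminescence read at 30 min.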

[8] = qHTS assay to identify small molecule antagonists of the vitamin D receptor (VDR) signaling pathway - cell viability counter screen (AID 743225); details: VDR-bla HEK293T viability, CellTiter-Glo luminescence, 16 h; viability change, negative = cytotoxic: at 61 µM (top of the series); further: nearly all actives have a fitted effect of over 50% in size
Outline: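 HEK293T VDR-bla; cpd + 1a,25-(OH)2D3 3 nM final, 16 h 37C/5% CO2; B/G FRET substrate 2 h RT; then CellTiter-Glo 30 min RT, luminescence.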

[9] = qHTS assay to identify small molecule agonists of the farnesoid-X-receptor (FXR) signaling pathway - cell viability counter screen (AID 743218); details: FXR-bla HEK293T viability, CellTiter-Glo luminescence, 16 h; viability change, negative = cytotoxic: at 62.6 µM (top of the series) unless noted; further: nearly all actives have a fitted effect of over 45% in size
Outline: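 Parallel cytotoxicity test: compound-treated (16 h, 37 C) HEK 293T FXR-bla reporter cells were lysed with CellTiter-Glo and luminescence recorded.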

[10] = qHTS assay to identify small molecule antagonists of the farnesoid-X-receptor (FXR) signaling pathway - cell viability counter screen (AID 743221; active means well fitted cell-killing curve with a large enough effect in the repeat runs, not every such curve was filed as active; inconclusive means weak or mixed curves, or effect the other way; inactive means no such curve, though single readings can be large or run the other way; further: nearly all actives have a fitted effect of over 50% in size); details: FXR-bla HEK293T viability, CellTiter-Glo luminescence, 16 h; activity change, negative = cytotoxicity: at 62.6 µM (top of the series) unless noted
Outline: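 Multiplexed counter screen: viability of FXR-bla HEK 293T cells under agonist stimulation by chenodeoxycholic acid (50 uM, final) and test compound for 16 h at 37 C, measured by CellTiter-Glo luminescence in the reporter wells.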
Potency means the concentration at half of the fitted maximal effect; tags describe the fitted curve by direction and shape or compound fluorescence and quenching.

Sequence of UniProt P11473 (P11473 whole entry, looked up): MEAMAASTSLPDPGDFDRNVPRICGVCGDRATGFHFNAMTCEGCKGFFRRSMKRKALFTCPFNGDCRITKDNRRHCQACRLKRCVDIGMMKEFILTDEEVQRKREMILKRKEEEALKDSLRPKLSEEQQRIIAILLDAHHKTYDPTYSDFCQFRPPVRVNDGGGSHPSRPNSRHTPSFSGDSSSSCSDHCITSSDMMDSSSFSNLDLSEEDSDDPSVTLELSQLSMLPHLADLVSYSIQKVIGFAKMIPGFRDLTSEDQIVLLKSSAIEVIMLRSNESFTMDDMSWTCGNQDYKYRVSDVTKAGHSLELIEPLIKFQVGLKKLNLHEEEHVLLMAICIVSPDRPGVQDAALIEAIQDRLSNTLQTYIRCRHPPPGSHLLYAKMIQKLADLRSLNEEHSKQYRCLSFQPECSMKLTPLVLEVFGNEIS
Sequence of UniProt Q96RI1 (Q96RI1 whole entry, looked up): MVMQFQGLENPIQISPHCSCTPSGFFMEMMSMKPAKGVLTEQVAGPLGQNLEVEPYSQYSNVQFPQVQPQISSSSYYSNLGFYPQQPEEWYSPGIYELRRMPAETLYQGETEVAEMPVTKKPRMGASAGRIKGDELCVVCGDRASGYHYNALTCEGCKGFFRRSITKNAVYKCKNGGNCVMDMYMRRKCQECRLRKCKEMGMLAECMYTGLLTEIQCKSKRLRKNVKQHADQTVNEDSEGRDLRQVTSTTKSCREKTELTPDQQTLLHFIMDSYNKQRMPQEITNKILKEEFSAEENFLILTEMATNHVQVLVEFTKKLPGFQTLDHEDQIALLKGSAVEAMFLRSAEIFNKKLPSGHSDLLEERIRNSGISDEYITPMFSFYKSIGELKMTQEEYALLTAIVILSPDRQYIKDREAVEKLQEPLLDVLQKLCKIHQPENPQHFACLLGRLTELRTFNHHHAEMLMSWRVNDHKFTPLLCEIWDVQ

CCCCNC(=O)n1c(NC(=O)OC)nc2ccccc21
inconclusive: Potency [2] 48.7 µM | activity change, negative = inhibition [3] -9.08% and -32.1%
54.7 µM (inconclusive) and inactive: Potency [6]
inactive: Potency [1] | Potency [4] | Potency [5]

N#CCCC(Br)(C#N)CBr (stereo not drawn)
inconclusive: Potency [2] 49 µM [rising, partial curve] | Potency [3] 54.9 µM | Potency [8] 38.9 µM [cytotoxic, partial curve] | Potency [4] 54.9 µM | Potency [5] 61.6 µM [cytotoxic, single point] | Potency [6] 24.5 µM [rising, partial curve, poor fit]
active: Potency [7] 43.6 µM
inactive: Potency [1]

Cc1cc(C(C)(C)c2cc(C)c(O)c(C)c2)cc(C)c1O
active: Potency [9] 47.4 µM
inconclusive: Potency [10] 53.1 µM [falling, single point] | Potency [2] 53.1 µM | Potency [3] 59.6 µM [single point] | Potency [7] 59.6 µM [cytotoxic, single point] | Potency [8] 59.6 µM [cytotoxic, single point] | Potency [4] 53.1 µM | Potency [5] 53.1 µM [cytotoxic, single point] | Potency [6] 59.6 µM [cytotoxic]

CC(=O)c1cc(C(C)(C)C)cc2c1CCC2(C)C
inconclusive: Potency [9] 54.9 µM [cytotoxic, single point] | Potency [4] 43.6 µM [falling, partial curve] | Potency [5] 43.6 µM [cytotoxic, single point] | Potency [6] 0.0062 µM [cytotoxic, full curve]
inactive: Potency [3]

O=C(Nc1ccccc1-c1ccc(Cl)cc1)c1cccnc1Cl
inconclusive: Potency [9] 0.463 µM [rising, partial curve, poor fit] | Potency [10] 2.07 µM [falling, full curve] | Potency [2] 65.4 µM [single point] | Potency [3] 2.6 µM [inhibitor, single point] | Potency [7] 3.06 µM [rising, full curve, poor fit] | Potency [8] 0.207 µM [cytotoxic, single point] | Potency [4] 0.0046 µM [rising, full curve, poor fit] | Potency [5] 49 µM [cytotoxic, partial curve, poor fit] | Potency [6] 54.9 µM

ClC1=C(Cl)[C@]2(Cl)[C@@H]3[C@@H](Cl)[C@H]4O[C@H]4[C@@H]3C1(Cl)C2(Cl)Cl
inconclusive: Potency [9] 61.6 µM [cytotoxic, single point] | Potency [7] 54.9 µM [cytotoxic, single point] | Potency [8] 61.6 µM [cytotoxic, single point] | Potency [4] 61.6 µM [falling, single point] | Potency [5] 61.6 µM [cytotoxic, partial curve, poor fit] | activation [6] 16.2%

CC1CCC(C(C)C)C(OC(=O)c2ccccc2N)C1 (stereo not drawn)
active: Potency [8] 38.4 µM | Potency [5] 34.2 µM
inconclusive: Potency [10] 54.2 µM [falling, single point] | activation [2] 35.6% | Potency [3] 54.2 µM [inhibitor, single point] | Potency [4] 38.4 µM [falling, partial curve] | Potency [6] 38.4 µM [falling, partial curve]

ClC1=C(Cl)[C@]2(Cl)[C@@H]3[C@@H]4C[C@@H]([C@H]5O[C@@H]45)[C@@H]3[C@@]1(Cl)C2(Cl)Cl
active: Potency [9] 56.4 µM
inconclusive: Potency [10] 43.3 µM [phenotype inactive, partial curve, poor fit] | Potency [2] 1.55 µM [rising, partial curve, poor fit] | Potency [3] 0.0015 µM | Potency [8] 0.0245 µM [rising, full curve, poor fit] | Potency [4] 38.9 µM [cytotoxic, partial curve] | Potency [5] 0.0014 µM [rising, full curve, poor fit] | activation [6] -0.0086%

N#Cc1sc2c(=O)c3ccccc3c(=O)c=2sc1C#N
inconclusive: Potency [2] 12.3 µM [rising, partial curve, poor fit] | Potency [4] 4.9 µM [falling, full curve] | Potency [6] 38.9 µM [cytotoxic]
active: Potency [9] 34.7 µM | Potency [10] 34.7 µM | Potency [8] 11 µM | Potency [5] 1.95 µM

COc1ccc(/C(=C/C(=O)N2CCOCC2)c2ccc(Cl)cc2)cc1OC
inconclusive: Potency [9] 15.5 µM [cytotoxic, partial curve, poor fit] | Potency [3] 27.5 µM [activator, partial curve, poor fit] | Potency [4] 0.389 µM [rising, full curve, poor fit] | Potency [5] 30.9 µM [cytotoxic, partial curve]

CCCCCCCCCCCCBr
inconclusive: Potency [8] 15.5 µM [cytotoxic, full curve, poor fit] | Potency [4] 61.6 µM [falling, single point] | Potency [5] 54.9 µM [cytotoxic, partial curve, poor fit]
active: Potency [9] 13.8 µM | Potency [10] 43.6 µM
inactive: Potency [3]

OCC(c1ccc(Cl)cc1)c1ccc(Cl)cc1
active: Potency [8] 54.9 µM
inconclusive: Potency [3] 54.9 µM [inhibitor, single point] | Potency [4] 54.9 µM [falling, single point] | Potency [5] 54.9 µM [cytotoxic] | activation [6] 0.116%

CC(=O)[O][Hg][c]1ccccc1
inconclusive: Potency [4] 485 nM [falling, full curve] and 616 nM [falling, full curve] and 1.69 µM [falling, full curve]
active: Potency [9] 968 nM and 871 nM and 2.11 µM | Potency [7] 686 nM and 871 nM and 422 nM | Potency [8] 1.37 µM and 2.19 µM and 2.39 µM | Potency [5] 485 nM and 549 nM and 1.34 µM

Cc1cc(SCc2sc(-c3ccc(C(F)(F)F)c(F)c3)nc2C)ccc1OCC(=O)O
inconclusive: Potency [9] 15.5 µM [cytotoxic, full curve, poor fit] | Potency [1] 12.3 µM [fluorescent, partial curve, poor fit] | Potency [4] 61.6 µM [falling, single point] | Potency [5] 61.6 µM [cytotoxic, single point]
active: Potency [8] 21.9 µM

c1ccc(OCC2CO2)cc1 (stereo not drawn)
inconclusive: Potency [2] 55.1 µM [rising, single point] | Potency [4] 61.9 µM [falling, single point] | Potency [5] 55.1 µM [cytotoxic, single point]
inactive: Potency [3]

CCCN(CCC)CCc1c[nH]c2ccccc12
inconclusive: Potency [1] 0.24 µM [rising, single point] | Potency [4] 60.8 µM [falling, single point] | Potency [5] 48.3 µM [cytotoxic, partial curve]

S=C(SSC(=S)N1CCCCC1)N1CCCCC1
active: Potency [10] 0.211 µM | Potency [7] 0.168 µM
inconclusive: Potency [9] 0.133 µM [cytotoxic, full curve, poor fit] | Potency [1] 0.237 µM [rising, full curve] | activation [2] -20% | Potency [3] 26.8 µM [single point] | Potency [8] 26.8 µM [cytotoxic, single point] | Potency [4] 0.535 µM [falling, full curve] | Potency [5] 1.07 µM [cytotoxic, single point]

CN(C)CCc1c[nH]c2ccc(O)cc12
inconclusive: Potency [1] 2.12 µM [rising, partial curve, poor fit] | Potency [4] 53.7 µM [falling, single point] | Potency [5] 60.2 µM [cytotoxic, single point]

COc1cccc(C(=O)CCN[C@@H](C)[C@H](O)c2ccccc2)c1
active: Potency [7] 33.5 µM
inactive: Potency [1]
inconclusive: Potency [3] 21.3 µM [inhibitor, partial curve, poor fit] | Potency [4] 23.9 µM | Potency [5] 26.8 µM [rising, partial curve, poor fit]

CCOP(=S)(OCC)Oc1nc(Cl)c(Cl)cc1Cl
inconclusive: activation [2] -31% | Potency [4] 49.1 µM [falling, partial curve] | Potency [5] 55.1 µM [cytotoxic, single point] | Potency [6] 55.1 µM [cytotoxic] and 54.9 µM [cytotoxic]

Clc1ccccc1-c1ccccc1Cl
inconclusive: activity change, negative = inhibition [3] -13.7% [at 78.8 µM] | Potency [4] 62.6 µM [falling, partial curve] | Potency [5] 78.8 µM [cytotoxic, partial curve, poor fit] | activation [6] -2.21% [at 78.8 µM]
inactive: Potency [10]
